In publication PMC3681933:
No constants are given. Whether binding was seen depends on the method and setting. In cells and extracts the contact can be indirect. Some binding calls cover weakened binding; strength is not graded here. Where a sequence is shown, tags or fusion partners need not be part of it.

Chains of the proteins cited; added tags and fusions are not shown. Lines headed by an entry give the natural chain unless they say otherwise; changes in a name come on top.
UniProt P19073: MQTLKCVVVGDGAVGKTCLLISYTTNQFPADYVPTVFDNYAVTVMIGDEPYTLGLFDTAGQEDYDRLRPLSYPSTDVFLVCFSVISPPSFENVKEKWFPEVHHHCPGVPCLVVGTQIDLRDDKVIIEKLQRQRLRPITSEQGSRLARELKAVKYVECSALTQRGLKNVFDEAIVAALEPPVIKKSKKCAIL

Tests used:
Experiment in all cases: pull-down; GST or GST fusions induced with 2% galactose for 4 h in yeast co-expressing 3HA-Msb1 (strains YEF473A wild type or YEF1395 msb1Δ, endogenous BOI1 and BOI2 present); glutathione-Sepharose beads from Triton X-100-solubilized cell lysates; anti-HA blot
GST-Boi2 (S. cerevisiae) = target: T1, GST-Boi2 (S. cerevisiae) (UniProt P39969)
T1 sequence: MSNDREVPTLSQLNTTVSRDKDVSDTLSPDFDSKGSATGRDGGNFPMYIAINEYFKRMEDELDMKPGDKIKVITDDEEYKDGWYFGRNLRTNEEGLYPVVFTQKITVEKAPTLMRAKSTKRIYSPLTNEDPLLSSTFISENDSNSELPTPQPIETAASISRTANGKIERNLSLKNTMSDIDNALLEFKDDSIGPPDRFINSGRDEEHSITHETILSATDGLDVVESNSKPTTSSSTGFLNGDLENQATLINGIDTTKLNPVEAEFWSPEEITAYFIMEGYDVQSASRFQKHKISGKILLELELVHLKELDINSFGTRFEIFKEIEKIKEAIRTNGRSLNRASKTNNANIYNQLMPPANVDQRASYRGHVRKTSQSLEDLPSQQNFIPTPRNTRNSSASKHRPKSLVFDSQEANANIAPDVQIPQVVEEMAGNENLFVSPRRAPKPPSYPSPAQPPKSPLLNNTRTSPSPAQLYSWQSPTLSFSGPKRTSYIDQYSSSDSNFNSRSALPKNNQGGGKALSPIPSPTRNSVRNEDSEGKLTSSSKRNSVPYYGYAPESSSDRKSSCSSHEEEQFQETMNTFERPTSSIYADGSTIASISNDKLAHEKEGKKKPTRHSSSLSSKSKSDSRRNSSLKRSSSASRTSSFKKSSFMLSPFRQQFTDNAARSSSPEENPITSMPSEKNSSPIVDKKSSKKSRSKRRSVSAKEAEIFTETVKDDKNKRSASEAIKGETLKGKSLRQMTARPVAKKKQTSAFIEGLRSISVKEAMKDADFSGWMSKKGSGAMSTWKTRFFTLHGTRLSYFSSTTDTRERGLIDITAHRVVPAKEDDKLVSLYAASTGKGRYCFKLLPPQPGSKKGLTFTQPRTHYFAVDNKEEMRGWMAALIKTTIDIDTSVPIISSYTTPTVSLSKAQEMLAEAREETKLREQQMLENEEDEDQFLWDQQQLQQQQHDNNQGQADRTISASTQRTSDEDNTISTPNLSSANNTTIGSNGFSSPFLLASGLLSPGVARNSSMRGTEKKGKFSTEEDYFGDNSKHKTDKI

[1] = target: T2, GST-Boi2-C (aa 459-1040) (S. cerevisiae) (UniProt P39969)
T2 sequence: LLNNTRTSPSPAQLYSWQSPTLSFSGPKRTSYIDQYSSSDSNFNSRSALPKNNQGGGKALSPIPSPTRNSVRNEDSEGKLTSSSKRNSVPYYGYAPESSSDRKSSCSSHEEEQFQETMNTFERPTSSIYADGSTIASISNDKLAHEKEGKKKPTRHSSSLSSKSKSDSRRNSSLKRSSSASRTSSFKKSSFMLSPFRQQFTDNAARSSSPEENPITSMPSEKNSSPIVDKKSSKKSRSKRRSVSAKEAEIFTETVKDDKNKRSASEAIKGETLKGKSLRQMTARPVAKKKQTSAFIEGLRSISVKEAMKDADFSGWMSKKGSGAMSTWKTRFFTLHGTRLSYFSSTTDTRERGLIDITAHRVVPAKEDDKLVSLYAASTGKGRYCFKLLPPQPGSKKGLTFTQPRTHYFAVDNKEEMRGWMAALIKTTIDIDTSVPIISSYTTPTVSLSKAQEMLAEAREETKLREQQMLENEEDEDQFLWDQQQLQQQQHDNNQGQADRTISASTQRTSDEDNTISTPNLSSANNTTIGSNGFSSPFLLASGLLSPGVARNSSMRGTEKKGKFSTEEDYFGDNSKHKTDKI

[2] = target: GST-Cdc42 (Q61L) (S. cerevisiae) (UniProt P19073)
[3] = target: GST-Cdc42 (WT) (S. cerevisiae) (UniProt P19073)

binding (GST-Boi2 (S. cerevisiae)): binds | binding [1]: binds | binding [2]: binds | binding [3]: binds
B1: Msb1 tagged with three copies of HA at its N-terminus (protein, UniProt P21339 1-1137)
chain: MNDMAKPLPTPPTAEIRKSRSNSPKKAQKTNLSPNKNQNNEKNVPRSNGRTKNEHNSMDDEEFEFFHQFSREKVKGVIHVITAELKEKGPDVEFLMIPFRPEQTNDKLLTLLNQLFPLGNGQPVNEKKQLRIVSKADVWTLFQCLKYIWCRLPNSEIIGWKSYLEFKFREEDKKFPRKSFLEIMPQCLASPNHASIVYDFFDLIISISSNSRVNKMSARKISKMCAIWAFSKQIPNSDIQDYDFESAAMKSFAPNNSIQDGLDQWIPASDAMFHLLLAFLRSFVPQDLESAKLPRTLKSLLFNNQYPPRKSTAYTSETILTIPLVTLKTDVFSRKPWQLLERCNDLLDFSDHDAFEAREDYALLKSLFRKKNTVEGISRKMSQESRRLMKAMSTKHSTFQPGWAPRECIENISHLKECIEVKRLDIDDYFIWTWLSSLSFEQTSEKKKIFGRSIILEFEFDGFKKWVVFQECDITLDYNKKGQLKKKTSAQSPTTEKELPPDDFELEDPPLSKSPTLSQTYKKFQAEVPQQSTVRRDSAPDNQGIYHTVISKNALTKNKHNVNLHSFEHKISKWNPLNNLRKKSGSNSSSSSFEEKSKDAPIREEYHTNKNHKSKKEERVLSQFSTLNPDEYQLPVIETGSSNFKIEIPELMYEHDDDDSDKLKNSQKRATDSAIEELNGMVEEMMINEPDDVKISITEAETFESLTKFDQYKPSNITDDDLQSSHSSAVHSLKLSTNTNDSCADSSKYTADRKLAEPRKISEESKVNDDSSSYYSPNINNLPASRMPSQPTYSNSDSKKAFTNESRLNVLQGAVSPSQQVTPKPYKNAPGDCVSPVQQKYYQNDRRNEMSPASAPVPPSAYSPARSPQFSTNSAGFKQNTINVPVGYNDPAHVLANQPHMTYRDQHNYPSHQQKQRPFQNNIVPPELKSRNQRADASPIPQHMVPVKQGVPNLPSNVPLYQQMERMNPNHQHPVNTYKVTQPPYHNNTTNAYGNSRAGNAHMLDGKWSNNPPQMVPKGVRPNQYPQQHVNRYSPQAQPVVPAEYYNGPPPMRAPPMMSHMVPAQEPIRYTAGANRRSFPQGMQQNAYSVPAQPMGAVNSEFYLPEAPQGNKLHGNINKRQERKKLYDNIRSGNFGI
